Data from the supplement of paper PMC3334620.
The full ranking holds about 33,000 sequences; the median of “E-score (-0.5 to 0.5)” is about -0.013, and the highest 2% start at about 0.3. Some of the results follow.

Target: T1, Msn1 (UniProt P22148)
T1 sequence: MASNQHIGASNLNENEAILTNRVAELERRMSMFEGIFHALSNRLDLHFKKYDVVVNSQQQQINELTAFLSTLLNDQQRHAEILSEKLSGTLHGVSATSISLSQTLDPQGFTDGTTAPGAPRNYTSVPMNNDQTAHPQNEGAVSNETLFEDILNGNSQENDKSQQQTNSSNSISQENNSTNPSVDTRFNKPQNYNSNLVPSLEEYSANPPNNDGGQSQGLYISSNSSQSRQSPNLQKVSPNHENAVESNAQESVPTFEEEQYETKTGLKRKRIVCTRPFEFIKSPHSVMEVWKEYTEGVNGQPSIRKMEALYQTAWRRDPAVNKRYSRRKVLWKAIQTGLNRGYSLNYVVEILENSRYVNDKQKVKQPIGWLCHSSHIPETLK
Assay: PBM E-score (8-mer binding enrichment) (E-score (-0.5 to 0.5)); higher = stronger / more preferred TF binding; most listed sequences are background and not binding sites
Details: protein concentration: 200 nM; construct: GST-full length
How it was run: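 Using PURExpress in vitro transcription/translation, GST-tagged yeast transcription factors were made in full-length or DNA-binding-domain form. These were applied at about 100-200 nM to double-stranded universal all-10-mer Agilent arrays, and bound protein was detected with fluorescent anti-GST. Scans were normalised with masliner before the Universal PBM Analysis Suite assigned E-scores to ungapped eight-base words pooled with their reverse complements.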

Sequence	PBM E-score
CACAACAA	0.0782
AAACTTTA	0.036
CGTAGAAA	0.0903
GAAACTTA	0.045
CAGTCGCC	-0.17
TGAACCCA	-0.025
AGTTTTTA	0.0974
AGATTCAT	-0.101
AGGAAGCA	-0.211
ACCCCTAC	-0.364
AATAGGTG	-0.0378
AGCCCTAT	-0.184
CTTACACC	-0.1
AAAAACAT	0.153
CTTGGACA	0.44
AAGTATTA	0.125
GACCAAAC	-0.0324
GCTCAGCA	-0.146
TAGTCCGA	0.21
ACACCCGC	0.0238
GACTTCGA	-0.0085
GCGAGTTA	0.0821
CAGCTTCG	-0.0245
GATTTAGA	0.0734
CGCAACCG	-0.0704

Sequence	PBM E-score
CACGTACA	0.281
AGTCCGCC	0.0819
ATAGTAAG	-0.0092
AGCGAGGC	-0.154
CGGGGTGA	-0.165
AAGCGTAC	-0.0935
AATCTATA	0.163
ATAGGATG	-0.0777
CGTAAATC	-0.0485
AGCCTACG	0.144
CATTGGAC	0.178
ACTGTGCA	-0.123
CCTTTTTA	-0.0333
CGAGGTTA	0.118
TGAGGCCA	-0.117
CGCCCTGC	-0.329
GAGGGAGA	-0.218
AAAACCTC	0.182
CAGTGCTC	-0.259
ATTAAGCA	-0.0173
AAGCTTAC	-0.113
TCGGTGAA	0.0999
TAACATGA	0.0502
TGAACGAA	-0.0529
CAAGTGAA	0.223

Sequence	PBM E-score
ATACACCC	0.0322
TAGAACGA	0.125
ACTCCGCC	-0.0537
ACTCACCC	-0.195
ACGACAGG	0.0905
AATATGTA	0.335
AGGTTCGC	-0.124
AGTCAGAG	-0.2
TAATCGCA	0.0856
AGCGTTGC	-0.00865
AAGAGAAG	0.0611
CAACGGCG	-0.018
AGTGTTGC	0.087
CATCCCTC	-0.141
ATCATTGG	-0.0397
GGAGTCCA	-0.171
TAATTAAA	0.0351
TAAATGCA	-0.0113
AGGTTCCA	-0.111
AGGCAGAT	-0.035
CCTCCAGA	-0.181
AATGCGGT	-0.218
GGACTGTA	-0.0567
CGGCAAAC	-0.0152
ACATCGCT	0.14

Sequence	PBM E-score
ACTCGGGG	-0.107
ACGAAGTA	-0.136
GCTCAGGA	0.081
AAAGTGTT	0.115
GGACCACA	-0.0418
CGTTTTAG	0.0391
CCTCTAGA	-0.0117
ATACTTGC	0.127
GCGAGTAC	0.19
CGTTGAAG	-0.115
AGTCAGCA	-0.153
ACAGGGGA	-0.151
TACGTGGA	-0.0535
CCTTGTCC	0.449
CTCTGCTC	-0.253
AGCTTAAT	-0.00074
GAATACTC	-0.00642
ATACGAGA	-0.212
ACGTGGGG	-0.0561
GACTGGGC	-0.142
GTCGATGA	-0.0803
CGATCTGC	-0.0831
GCGAGGTA	-0.00651
CCGAGGCC	-0.108
ATACTTCC	-0.0102

Sequence	PBM E-score
CAACTGTC	0.126
CTCCCGGC	0.00895
AAGTGGAT	-0.0864
AAACGTCT	0.24
CGTTGTCA	-0.023
AGGTCAGA	-0.0688
TTAGTCAA	-0.129
ATGCTCGG	-0.132
GATCTGTA	-0.0087
AGGTCATG	0.0174
GTATCTGA	0.14
AGGCTTTG	-0.111
CCGTGACA	0.164
CGGGTGGC	-0.294
ACCCTGCG	-0.0799
AAGTGCCT	-0.232
ATGTGTAC	0.248
AGCACTAC	-0.233
ATGAGCTG	-0.139
CAAGCAGA	0.165
ATAGCGCC	-0.117
ATTAGCTA	-0.086
CAACCGGC	0.0722
ATTCGCCC	-0.142
TGCCCAAA	-0.0979

Sequence	PBM E-score
AACCTAAC	-0.15
AAGGTGGG	-0.116
GGCATTTA	-0.103
CCAGATAA	0.0449
CCTGGTGC	-0.137
AAACGGAA	0.189
GCGGAGGA	-0.195
CCTATGGA	0.042
ACGCGTGG	0.00026
CAACTAAC	0.106
CCAGACGC	-0.193
CTCCTTGA	-0.216
AGTTGGAC	0.23
ACGAGTAT	-0.134
CATGTTGG	0.103
GGCAATCA	-0.00559
ACCAAGCT	0.176
CACCAGGG	-0.289
AAAAAATT	-6e-05
AGTCCCAG	0.0531
GGGCCGCA	-0.0501
CCGTTAAC	0.0702
CCTGTAGA	0.011
GCCATCTA	-0.154
AGAATAAG	0.0878

Sequence	PBM E-score
AGATCAAA	-0.0384
ATACCCTG	-0.0143
CTGAGTAA	-0.0248
ACTCCACG	-0.0977
ATAATAAC	0.0515
CTAAGCCA	-0.204
AAATGAAG	0.0377
ACAAACCA	0.177
AACGCGCA	0.0148
ACTGCTGA	-0.263
CTCATGTA	0.0182
GCAACGAC	-0.0993
AATCGAAA	-0.0506
AAAGCGGG	-0.0468
TATAGAGA	-0.048
CGCGACTC	-0.0614
CGTGACAC	0.178
AGCAGATG	-0.215
CCATTTCA	-0.106
ATACCAGC	-0.101
AGGTTGAT	-0.204
CGATTACG	-0.012
CGTATTCA	0.00724
ATATCGAC	0.165
ATTTGAAG	0.0099

Sequence	PBM E-score
GACCTACC	-0.0756
CAAGAGTA	0.0644
CCGACTCA	0.0468
AGTTTGTA	0.182
CGATCGGA	0.0488
GAGACCAC	-0.218
AGAAGAAA	0.0176
AATATAGC	0.0433
CGCGGGGC	-0.0612
GCTAGCAA	-0.0318
GAGTTCGA	0.0396
AATCGGGG	-0.223
GCTCTCGA	-0.179
ACATAGGA	-0.103
ACTAGAGC	-0.00897
CAGCCGCC	-0.17
GAGGTCCC	-0.192
ATATTACC	0.0127
AATTATCG	0.225
TGCGCACA	0.029
TACTAGTA	0.225
ACTCTTCG	-0.0863
GCCCTAAA	-0.189
GCCCCTTA	-0.239
ACTAACAT	0.268

Sequence	PBM E-score
ACCAAACG	-0.00261
GAGTTTAC	-0.0145
ACTCCAGT	-0.078
CTACTGTC	-0.0568
AACGGCGT	-0.024
CGACTTAG	-0.095
AGTACGAG	0.0168
GCTAACTA	-0.0398
AACCCGAA	-0.0916
TGCTACCA	-0.0221
CTACACTC	-0.1
TAGCACGA	0.0937
ACCTCTTG	-0.141
AACCCTCT	-0.241
AGCCTAGC	-0.0563
CCGCGTCA	-0.16
AGACCCGA	-0.0425
CACTCCGG	0.0934
CAATCCTG	0.0682
